From PubChem BioAssay AID1918932 (Molecular Pharmacology Branch, DTP, NCI, 2023)
A number of entries come with more than one value. The list is limited to them. The source may hold further records. The records of an entry repeat one measurement across runs, samples, wells, individuals or studies. Additions like (4×) count equal records among those shown.

Tested on: 171881-019-R-J1-PDC complex spheroid viability
Experiment: Anticancer human tumor 171881-019-R-J1-PDC patient-derived invasive breast carcinoma cell line growth inhibition
Settings: for viability, T/C: stronger effect = lower value
Description: Multicellular complex tumor spheroid response to LSD1 Inhibitor Iadademstat in combination with a variety of drugs and investigational agents in selected tumor cell lines
The current study was undertaken to assess response to LSD1 inhibitors in combination with standard-of-care drugs and investigational agents in solid tumor complex spheroid models as well as in the K-562 leukemia. Complex spheroids include a stromal component modeled by human endothelial cells (HUVEC) and fibroblasts modeled by human mesenchymal stem cells (MSCs). The concentration ranges selected for each drug and investigational agent were based upon clinically achievable concentrations if the clinical Cmax of the agent was known.
Compounds. The drugs and investigational agents used in this study are listed on Table 1. All of the agents used, including staurosporine (NSC755774) and gemcitabine (NSC613327), were obtained from the Developmental Therapeutics Program, NCI. FDA-approved anticancer drugs are available from the NCI at http://dtp.nci.nih.gov/branches/dscb/oncology_drugset_explanation.html. Drugs and investigational agents were >95% pure by proton nuclear magnetic resonance (NMR) and liquid chromatography/mass spectrometry (LC/MS). Stock solutions were prepared at 400x in DMSO, stored at -70 degrees C, and diluted in fresh medium prior to their use. The final concentration of DMSO in cell culture wells never exceeded 0.25% (v/v). The FDA-approved anticancer drug set is available from the Developmental Therapeutics Program at https://dtp.cancer.gov/organization/dscb/obtaining/available_plates.htm. All drugs and investigational agents were tested over a range starting from a high concentration at or near the clinical Cmax and decreasing in half-log increments. If the clinical Cmax for an agent had not been determined, the highest concentration tested was 10 microM.
Cell Lines. The patient-derived cancer cell (PDC) lines: 292921-168-R-J2-PDC, K24384-001-R-PDC, and 521955-158-R2-J5-PDC pancreatic carcinomas, 556581-035-R-J1 ovarian carcinoma, 324938-238-R-J1-PDC, 855422-203-R-J1-PDC and 883617-216-R-J1-PDC urothelial bladder carcinomas, 743489-274-T-PDC renal cell carcinoma, 138582-R-J1 Merkel cell tumor, K60290-347-R-J1 and K57222-313-R-J1-PDC glioblastomas, 653999-131-R-J2-PDC, LG0703-F948-PDC, and 349418-098-R-PDC non-small cell lung carcinomas, 885512-296-R-J2-PDC, 171881-019-R-J1-PDC breast carcinomas and 186277-243-T-J2-PDC and 233499-124-R-J2-PDC colon carcinomas were obtained from the NCI Patient-Derived Models Repository (PDMR, https://pdmr.cancer.gov). The established cell lines NCI/ADR-RES (RRID:CVCL_14520 and OVCAR-5 (RRID:CVCL_1628) ovarian carcinomas, 786-O (RRID:CVCL_1051) and A498 (RRID:CVCL_A498) renal cell carcinoma, NCI-H211 (ATCC, cat. CRL-5824; RRID:CVCL_1529), NCI-H196 (ATCC, cat. CRL-5823, RRID:CVCL_1509), SW 1271 (ATCC, cat. CRL-2177, RRID:CVCL_1716) and NCI-H1876 (ATCC, cat. CRL-5902, RRID:CVCL_1503) small cell lung carcinomas, MDA-MB-231 (RRID:CVCL_0062) and MDA-MB-468 (RRID:CVCL_0419)breast carcinomas (10-12). Pooled donor human umbilical vein endothelial cells (HUVEC, Lonza, cat. CC-2519) and human mesenchymal stem cells (hMSC, Lonza, cat. PT-2501) were purchased from Lonza (Walkersville, MD).
Cell Culture. All cells were maintained in an incubator at 37 degrees C and 5% CO2 with 95% humidity. The PDC lines were cultured according to standard operating procedures established by the NCI PDMR (https://pdmr.cancer.gov). Briefly all PDCs were thawed and cultured in Matrigel-coated flasks prepared with a working solution of 1X Ham's F-12 nutrient mix, without supplementation (Invitrogen, Waltham, MA, cat. 11765054), 100 U/mL penicillin-streptomycin (Invitrogen, cat. 15140122), and 2.5% Matrigel (Corning Inc., Corning, NY, cat. 354248) for the first three passages. […]
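Further: spheroids exposed to agents for 7 days after 3 days growth.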

SMILES	IC50 (combination with iadademstat, compound alone, run of 02/21/2022)	viability, T/C (compound alone 0.316 µM)	viability, T/C (compound alone 1 µM)	viability, T/C (compound alone 3.16 µM)	viability, T/C (compound alone 10 µM)	viability, T/C (compound alone 0.1 µM)
NC1CC1c1ccc(-c2cccc(O)c2)cc1 (centres undefined)	> 10 µM, 5.43 µM, < 100 nM, 813 nM	108 (4×), 109, 105, 101 (3×), 103 (2×), 107 (3×), 106 (3×), 110 (3×), 68.2, 102, 104 (2×), 112%	104 (2×), 105 (4×), 110, 107 (3×), 100, 103 (4×), 77.8, 108 (4×), 106, 49.7, 37.9, 102, 109%	103 (2×), 101 (2×), 107, 109, 102, 95.2, 61.3, 104, 106 (2×), 44, 48.2, 105 (2×), 108, 99.7, 100 (2×), 96.6, 93.5, 94.4, 113, 99.9%	86.2, 80.4, 87.2 (2×), 92.2, 85.7, 85.2, 39.1, 94.8, 92.4, 89.6, 35.5, 30.5, 83.5, 86.3, 87.3, 88.5 (2×), 88.7, 84.9, 85.4, 91.8, 83.3, 95.2, 86.6%	
NC1CCC(NC2CC2c2ccccc2)CC1 (centres undefined)			74.2, 80.8, 88.6, 80, 91.3 (2×), 106, 91.6, 85.4, 81.1, 85.8, 87.2, 95.7, 74.9, 97.9, 84.2, 88.1, 93.6, 83.3, 79, 87.6, 81.8, 87.7, 78.2, 82%	76, 89.3, 74.2, 78.7, 93.6, 82.9, 92.2, 90.1, 92.4, 80.3, 85.8, 89.6, 90.8, 82.3, 79.8, 87.2 (2×), 91, 78, 85.2, 99.9, 81.5, 96.2, 89.2%	75.7, 80.2, 72.8, 71.6, 92.8, 86.5, 97.2, 84.2, 88.3, 95.9, 89.2, 84.3, 107, 85.3, 102, 79.8, 83.5, 84.6, 85.6, 75.9, 94.2, 84.8, 81.6%	81.3, 89.9 (2×), 82.3, 78.4, 82.6, 96.1, 84.8, 90, 96.6, 86.8 (2×), 82.2, 83.4, 88.8, 89.6, 89.1, 82.1, 95.9, 74.3, 97, 72.9, 85.8, 99.4, 80.7%
